# Experimental data reported in the supplement of paper PMC9446081.
# Out of some 39,000 compounds screened, about 220 (0.56%) showed activity. The list shows a part of the results.
# Test system: Escherichia coli K-12 BW25113
# Assay: relative growth (OD600 normalised to plate interquartile mean) (fraction); higher = less growth inhibition, active = 0.2 or less
# Conditions: 50 µM; LB; incubation time: overnight (16-24 h)
# 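Also: static incubation at 37 °C against the wild-type strain, values averaged over two biological replicates.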
row,SMILES,relative growth
1,CC[N+](CC)(CC)CCOc1cccc(OCC[N+](CC)(CC)CC)c1OCC[N+](CC)(CC)CC,inactive: 0.912
2,Cc1ccc(NC(=O)Cc2coc3ccc(C(C)C)cc23)cc1,inactive: 1.01
3,COc1ccc(S(=O)(=O)Nc2ccc3c(c2)C(=O)N([C@@H](C)CO)C[C@@H](C)[C@@H](CN(C)C(=O)Nc2ccc(F)cc2)OCCCC[C@@H](C)O3)cc1,inactive: 1.01
4,C[C@@H]1CCCCO[C@H](CN(C)C(=O)Nc2cccc3ccccc23)[C@@H](C)CN([C@H](C)CO)C(=O)c2cc(NS(C)(=O)=O)ccc2O1,inactive: 1
5,C[C@H](CO)N1C[C@H](C)[C@H](CN(C)C)OCCCC[C@H](C)Oc2ccc(NC(=O)Nc3ccc(C(F)(F)F)cc3)cc2C1=O,inactive: 0.966
6,CC1CCc2c(N3CCC(O)CC3)c(F)cc3c(=O)c(C(=O)O)cn1c23 (stereo unspecified),active: 0.0484
7,CC(C)N1C[C@H](C)[C@@H](CN(C)Cc2ccc(Cl)cc2)Oc2c(NC(=O)c3ccncc3)cccc2C1=O,inactive: 1.03
8,COc1ccc2c(c1)c(-c1cccc(C)c1)nn2-c1ccccc1,inactive: 0.989
9,C[C@H]1CN([C@@H](C)CO)C(=O)Cc2cc(NC(=O)CCCCCC(=O)Nc3ccccc3N)ccc2O[C@@H]1CN(C)CC1CCCCC1,inactive: 0.854
10,COc1ccc(CN(C)C[C@H]2Oc3c(NS(=O)(=O)c4cn(C)cn4)cccc3C(=O)N([C@H](C)CO)C[C@H]2C)cc1,inactive: 0.999
11,C[C@@H]1CCCCO[C@H](CN(C)C(=O)Cc2ccccc2)[C@@H](C)CN([C@H](C)CO)C(=O)c2cc(NC(=O)Cc3ccccc3)ccc2O1,inactive: 1.01
12,C[C@H]1CN([C@@H](C)CO)C(=O)Cc2cc(NS(=O)(=O)c3ccc(F)cc3)ccc2O[C@H]1CN(C)Cc1ccc(-c2ccccc2)cc1,inactive: 0.941
13,Nc1c(O)cccc1C(=O)O,inactive: 1.02
14,COCC#Cc1ccc2c(c1)O[C@H](CN(C)C(=O)Nc1ccc(OC)cc1)[C@H](C)CN([C@H](C)CO)S2(=O)=O,inactive: 0.994
15,CCCNC(=O)N[C@@H]1C=C[C@H](CC(=O)N2CCN(C)CC2)O[C@H]1CO,inactive: 1.02
16,C[C@@H]1O[C@@H](O[C@H]2[C@H](O)[C@@H](O)[C@H](OC[C@H]3O[C@@H](OC(=O)[C@]45CCC(C)(C)C[C@@H]4C4=CC[C@H]6[C@@]7(C)CC[C@H](O[C@H]8OC[C@H](O)[C@H](O)[C@H]8O[C@H]8O[C@@H](C)[C@H](O)[C@@H](O)[C@H]8O)[C@@](C)(CO)[C@@H]7CC[C@@]6(C)[C@]4(C)CC5)[C@H](O)[C@@H](O)[C@@H]3O)O[C@@H]2CO)[C@H](O)[C@H](O)[C@H]1O,inactive: 1.04
17,Cc1noc(C)c1S(=O)(=O)Nc1cccc2c1O[C@@H](CN(C)S(=O)(=O)c1ccc(F)cc1)[C@@H](C)CN([C@@H](C)CO)C2=O,inactive: 1.02
18,COc1ccc(NC(=O)N(C)C[C@@H]2OCCCC[C@H](C)Oc3ccc(NC(=O)Nc4ccccc4)cc3C(=O)N([C@@H](C)CO)C[C@@H]2C)cc1,inactive: 1.02
19,CC(C)NC(=O)N(C)C[C@@H]1Oc2ccc(NC(=O)CCCN(C)C)cc2CC(=O)N([C@@H](C)CO)C[C@H]1C,inactive: 0.978
20,C[C@@H]1CN([C@@H](C)CO)C(=O)Cc2cc(NC(=O)Nc3ccc4c(c3)OCO4)ccc2O[C@@H]1CN(C)C(=O)Nc1cccc2ccccc12,inactive: 0.989
21,C[C@@H]1CN([C@@H](C)CO)C(=O)c2cc(NC(=O)CCC(F)(F)F)ccc2O[C@H]1CN(C)C(=O)Nc1cccc2ccccc12,inactive: 1

row,SMILES,relative growth
1,CN1C(=O)N[C@@H]2c3ccccc3O[C@@]1(COC(=O)NCCCCCC(=O)NO)[C@@H]2COC(=O)c1ccccc1,inactive: 0.972
2,C[C@@H]1CCCCO[C@@H](CN(C)C(=O)c2ccncc2)[C@H](C)CN([C@@H](C)CO)C(=O)c2cc(NC(=O)NC3CCCCC3)ccc2O1,inactive: 1.02
3,C[C@@H]1CN([C@@H](C)CO)S(=O)(=O)c2ccc(C#CC3CC3)cc2O[C@H]1CN(C)Cc1cccc(F)c1,inactive: 1.02
4,COc1ccc(NC(=O)Nc2ccc3c(c2)C(=O)N([C@H](C)CO)C[C@@H](C)[C@@H](CN(C)S(=O)(=O)c2cccs2)OCCCC[C@@H](C)O3)cc1,inactive: 1.02
5,O=C(NCCCN1CCOCC1)[C@H]1[C@@H]2C=C[C@@]3(CN(Cc4cccs4)C(=O)[C@@H]13)O2,inactive: 1.04
6,Cc1noc(C)c1NC(=O)N(C)C[C@H]1OCCCC[C@@H](C)Oc2ccc(NC(=O)Cc3ccccc3)cc2C(=O)N([C@H](C)CO)C[C@@H]1C,inactive: 0.986
7,C[C@H]1CC=CC[C@H](c2cccc(Cl)c2)NC(=O)[C@H](Cc2ccccc2)N(C)C(=O)c2ccccc2O1,inactive: 1.04
8,COc1ccccc1C#Cc1ccc2c(c1)O[C@@H](CN(C)Cc1cncnc1)[C@@H](C)CN([C@@H](C)CO)S2(=O)=O,inactive: 1.04
9,O=C1COc2cccnc2N1,inactive: 1.03
10,NCC(=O)O,inactive: 1.02
11,O=C(C[C@H]1CC[C@H]2NC[C@H](O)COC[C@@H]2O1)NCCN1CCCCC1,inactive: 1.01
12,COc1ccc(NC(=O)Nc2cccc3c2O[C@@H](CN(C)Cc2ccc(Cl)c(Cl)c2)[C@H](C)CN([C@H](C)CO)C3=O)cc1,inactive: 0.999
13,Cc1ccc(S(=O)(=O)Nc2ccc3c(c2)C(=O)N([C@H](C)CO)C[C@H](C)[C@@H](CN(C)C(=O)c2ccccc2)OCCCC[C@@H](C)O3)cc1,inactive: 0.988
14,C[C@H](CO)N1C[C@H](C)[C@@H](CN(C)C(=O)Nc2ccc3c(c2)OCO3)Oc2c(NC(=O)c3cnccn3)cccc2C1=O,inactive: 0.983
15,CC(=O)NCC(=O)O.CC(=O)NCC(=O)O.N=C(N)c1ccc(N=NNc2ccc(C(=N)N)cc2)cc1,inactive: 1.01
16,Cn1c(=O)[nH]c2ccccc21,inactive: 1.03
17,NNc1ccc2[nH]c(=O)[nH]c2c1,inactive: 1.01
18,C[C@H](CO)N1C[C@H](C)[C@H](CN(C)C(=O)Nc2ccc(F)cc2)OCCCC[C@H](C)Oc2ccc(NC(=O)Nc3ccccc3)cc2C1=O,inactive: 1.03
19,COCC#Cc1ccc([C@@H]2[C@H]3CN(C(=O)c4cccnc4)CC(=O)N3[C@H]2CO)cc1,inactive: 0.935
20,O=C(C[C@@H]1CC[C@H](NS(=O)(=O)c2ccc(F)cc2)[C@@H](CO)O1)N1CCC(Cc2ccccc2)CC1,inactive: 0.993
21,Cc1ccc(S(=O)(=O)N2C[C@H](O)COC[C@H]3O[C@@H](CC(=O)NCc4ccc(Cl)c(Cl)c4)CC[C@@H]32)cc1,inactive: 1.01

row,SMILES,relative growth
1,COc1ccc(S(=O)(=O)Nc2ccc3c(c2)C(=O)N([C@H](C)CO)C[C@@H](C)[C@H](CN(C)S(=O)(=O)c2cn(C)cn2)O3)cc1,inactive: 0.991
2,COc1ccc2c3c(n(c2c1)C)[C@@H](CO)N(C[C@]13CCN(CC1)S(=O)(=O)c1ccccc1)C(=O)c1cccnc1,inactive: 1.02
3,CS(=O)(=O)N1[C@@H]2c3ccc(C4=CCCCC4)c(=O)n3C[C@H]1[C@H](CO)[C@H]2C(=O)N1CCOCC1,inactive: 1.02
4,C[C@@H]1CCCCO[C@H](CN(C)Cc2ccc(C(=O)O)cc2)[C@@H](C)CN([C@H](C)CO)C(=O)c2cc(NS(=O)(=O)c3ccc(F)cc3)ccc2O1,inactive: 1.02
5,C[C@@H]1CCCCO[C@H](CN(C)Cc2ccccc2)[C@@H](C)CN([C@@H](C)CO)C(=O)c2cc(NS(=O)(=O)c3ccc(F)cc3)ccc2O1,inactive: 0.975
6,C[C@@H]1CN([C@H](C)CO)C(=O)c2cccc(NC(=O)c3ccc(-c4nccs4)cc3)c2O[C@H]1CN(C)C(=O)Nc1ccccc1,inactive: 1
7,Cc1ccc(S(=O)(=O)N(C)C[C@@H]2Oc3ccc(NS(=O)(=O)c4c(C)noc4C)cc3CC(=O)N([C@@H](C)CO)C[C@@H]2C)cc1,inactive: 1
8,O=C1N[C@@H](c2ccccc2)COCc2cn(nn2)CC[C@@H](Cc2ccc(C(F)(F)F)cc2)C(=O)N[C@@H](c2ccccc2)COCc2cn(nn2)CC[C@H]1Cc1ccc(C(F)(F)F)cc1,inactive: 0.991
9,Cn1nnc2c1[C@H](COCC1CC1)CNC2,inactive: 1.04
10,CC[C@@]1(C)OC(=O)N(C)C1=O,inactive: 0.996
11,C[C@H](CO)N1C[C@H](C)[C@H](CN(C)S(=O)(=O)c2ccc(F)cc2)Oc2c(NC(=O)C3CCOCC3)cccc2C1=O,inactive: 0.985
12,O[C@H]1CCN(c2nccs2)C1,inactive: 1.01
13,CC(C)NC(=O)N(C)C[C@H]1OCCCC[C@H](C)Oc2ccc(NC(=O)Nc3ccc(C(F)(F)F)cc3)cc2C(=O)N([C@@H](C)CO)C[C@H]1C,inactive: 1.01
14,C[C@H]1CN([C@@H](C)CO)C(=O)Cc2cc(NC(=O)CCC(F)(F)F)ccc2O[C@@H]1CN(C)Cc1ccc(C(=O)Nc2ccccc2N)cc1,inactive: 0.99
15,CCOC(=O)CNc1n[nH]c(=O)[nH]c1=O,inactive: 1.04
16,CCNC(=O)CC[C@H](N)C(=O)O,inactive: 0.98
17,CO[C@H]1CN(C)C(=O)c2cc(NS(=O)(=O)CC(F)(F)F)ccc2OC[C@@H](C)N(Cc2ccccn2)C[C@H]1C,inactive: 1.01
18,COc1cccc(S(=O)(=O)N2C[C@@H](O)COC[C@H]3O[C@H](CC(=O)N4CCN(C)CC4)CC[C@@H]32)c1,inactive: 1
19,C[C@@H]1CN([C@H](C)CO)C(=O)c2cccc(NS(=O)(=O)c3cccs3)c2O[C@@H]1CN(C)C(=O)Nc1cccc2ccccc12,inactive: 1.01
